Source: PubChem BioAssay AID1240 (Sanford-Burnham Center for Chemical Genomics, 2008)
In all, about 50,000 compounds went through this assay and about 800 (1.6%) showed an effect of 50% or more. Some of the results follow.

Target: Bcl-2-like protein 10 (Homo sapiens) (UniProt Q9HD36)
Test: TR3 peptide-Bcl-B binding displacers, biochemical primary FP assay, phenotype converters (AID 1240);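 further: 0% = Bcl-B with tracer peptide and DMSO and 100% = tracer peptide lacking Bcl-B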
Conditions: GST-Bcl-B / FITC-TR3 peptide fluorescence polarization; stronger effect = higher value; compound at 3.75 mg/L

UniProt Q9HD36, sequence (Q9HD36 whole entry, looked up): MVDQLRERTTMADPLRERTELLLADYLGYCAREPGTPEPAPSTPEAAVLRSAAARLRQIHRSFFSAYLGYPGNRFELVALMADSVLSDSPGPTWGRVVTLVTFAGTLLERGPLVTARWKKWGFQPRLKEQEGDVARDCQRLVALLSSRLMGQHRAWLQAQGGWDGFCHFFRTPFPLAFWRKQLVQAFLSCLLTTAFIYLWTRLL

Row | SMILES | displacement [%]
1 | O=C(N/N=C\C=C\c1ccco1)c1ccc(Br)cc1 | -1.2
2 | COc1ccc(CCNC(=O)c2ccc(N(Cc3ccc(Cl)cc3)S(C)(=O)=O)cc2)cc1OC | 13.7
3 | COc1ccc(OC)c(NC(=O)COc2ccccc2C(C)(C)C)c1 | -6.8
4 | Cc1ccccc1/C=N/N1CCN(Cc2ccc(Cl)cc2)CC1 | -4.1
5 | Cc1cc(=O)oc2cc3c(cc12)OCCN3 | 13.2
6 | Cc1ccc2c(c1)-c1c(ssc1=S)C(C)(C)N2C(=O)Cc1ccccc1 | 3
7 | CCCC(C)C1C(C#N)=C(N)Oc2cc(N)ccc21 (stereo not drawn) | -12.4
8 | CC1(c2ccccc2)CC(C)(C)N(C(=O)CN2CCOCC2)c2ccccc21 (stereo not drawn) | -10.7
9 | O=C(c1cccc(F)c1)c1ccc2c(c1)CCCO2 | -0.6
10 | O=C1C(Cl)=CC(=NS(=O)(=O)c2ccccc2)C=C1Br | 24
11 | CC(=O)N/C(=N/c1nc(C)cc(C)n1)Nc1ccc(C)c(Cl)c1 | -6.7
12 | CC(=O)CCc1c(C)[nH]c2ccc(Br)cc2c1=O | -1.4
13 | Cc1ccc(OCCOCCN2CCCC2)cc1 | 7.4
14 | O=C1C(Cl)=C(Nc2ccc(F)cc2)C(=O)N1c1ccccc1Cl | 1.3
15 | CCN(CC)c1ccc(N2C(=O)/C(=C/c3ccc(C(=O)OC)cc3)SC2=S)cc1 | -10.6
16 | CN1/C(=C\C(=O)Nc2ccc(Br)cc2)c2ccccc2CC1(C)C | -0.7
17 | CC1CCN(C2=NC(=O)/C(=C/c3ccc(N(C)C)cc3)S2)CC1 | 157
18 | C=CCOc1ccc(/C=C2\SC(=S)N(C)C2=O)cc1OC | 11.8
19 | COc1ccc(-c2nc3cc(NC(=O)c4ccco4)ccc3o2)cc1Cl | -13.9
20 | CCOC(=O)c1c(CSc2ccccc2)n(C)c2cc(Br)c(OC)c(O)c12 | -4.3
21 | O=C(CSc1nnc2c(n1)[nH]c1ccccc12)OCN1C(=O)c2ccccc2C1=O | 15.2
22 | Cc1ccc(-c2nn(-c3cc(N4CCN(C)CC4)ccc3[N+](=O)[O-])c(=O)c3ccccc23)cc1C | -5.5

Row | SMILES | displacement [%]
23 | CCOc1cc(C2C(C(=O)OC)=C(C)NC3=C2C(=O)c2ccccc23)ccc1OCc1cccc(F)c1 (stereo not drawn) | 14.5
24 | CC(=O)CCc1oc2ccc(C)cc2c1-c1ccccc1 | -5.4
25 | Cc1cccc(N2C(=O)/C(=C/c3ccccc3C(=O)O)SC2=S)c1C | 5.2
26 | CC1(C)Cc2ccccc2C(NN=C2CCCC2)=N1 | -3.6
27 | C=CCSc1nc2c(c(-c3ccc(Br)cc3)c1C#N)C(=O)CC(C)(C)C2 | -7.9
28 | COc1ccc(-c2cc(CC(=O)c3ccccc3)cc(-c3ccc(OC)cc3)n2)cc1 | 7.7
29 | Cc1cc(C(=O)N/N=C/C=C/c2ccccc2)n[nH]1 | -7.4
30 | O=C(COc1ccc(Cl)cc1Cl)Oc1ccccc1 | -9.6
31 | Cc1ccc(NC(=O)c2ccco2)cc1Br | 2.2
32 | CCN(CC)c1ccc(NC(=O)c2ccccc2C(F)(F)F)cc1 | -4.4
33 | Cc1cc(Cl)c2cc(C(=O)O)ccc2n1 | 17.4
34 | CCOC(=O)c1c(C)sc(Sc2ccc(Cl)cc2[N+](=O)[O-])c1OC(C)=O | -10.4
35 | O=C1OC(c2ccc(Br)cc2)=C/C1=C/c1ccc(-c2ccccc2[N+](=O)[O-])o1 | -4.7
36 | O=C(Nc1ccc(OC(F)(F)F)cc1)c1cccc(OCc2ccccc2)c1 | 8.8
37 | CCNC(=O)CP(=O)(c1ccccc1)c1ccccc1 | -4.8
38 | CCOC(=O)c1c(NC(=O)Cc2cccs2)sc(C)c1C | -4.1
39 | O=S(=O)(N=Nc1c(O)[nH]c2ccccc12)c1ccc2ccccc2c1 | -3.7
40 | CCN(CC)C(=O)Cn1c(O)c(N=NC(=O)c2ccc(C(C)(C)C)cc2)c2ccccc21 | 17.9
41 | Cc1cccc(C2OC3(C(=O)c4ccccc4C3=O)C(c3ccc(Br)cc3)C23C(=O)c2ccccc2C3=O)c1 (stereo not drawn) | 14.1
42 | COc1ccc(C(=O)Nc2ccc(C)cc2[N+](=O)[O-])cc1Cl | -1.6
43 | c1ccc(CCSc2nc3ccccc3[nH]2)cc1 | 6.2
44 | Cc1ccc(S(=O)(=O)/N=C(\Nc2nc(C)cc(C)n2)Nc2ccccc2C)cc1 | -2.3

Row | SMILES | displacement [%]
45 | O=C(/C=C/c1cccc([N+](=O)[O-])c1)Nc1ccc(-c2nc3ncccc3o2)cc1 | 45.3
46 | CC(C)N=C(NS(=O)(=O)c1ccccc1)c1ccccc1 | 11.8
47 | Cc1cccc(NC(=O)C2C(c3ccccc3)C2(Cl)Cl)c1C (stereo not drawn) | -0.1
48 | COC(=O)c1ccccc1NC(=O)c1cc2nc(-c3cccs3)cc(C(F)(F)F)n2n1 | 4.4
49 | CSc1nc(-c2ccccc2)nc2[nH]c(-c3ccccc3)cc(=O)c12 | 44.4
50 | CC1=C([N+](=O)[O-])C(c2ccccc2Cl)NC(=O)N1C (stereo not drawn) | 2.3
51 | CC(C)(C)NC(=O)c1cccc(C(=O)Nc2cccc(O)c2)c1 | -3.2
52 | CCOc1ccc2nc(SCC(=O)NCC(=O)c3ccccc3)sc2c1 | -10.9
53 | COC(=O)[C@]1(C)C=C2C3=CC(=O)C4[C@@]5(C)CCC(O)C(C)(C)C5CC[C@@]4(C)[C@]3(C)CC[C@@]2(C)CC1 (stereo partly drawn) | -6
54 | Cc1ccccc1C(=O)NNC(=O)c1ccc([N+](=O)[O-])cc1 | -13.4
55 | COc1ccccc1/C=N/NC(=O)c1cc(C23CC4CC(CC(C4)C2)C3)[nH]n1 | 2.2
56 | Cc1cc(C)c(C)c(OCCCCn2ccnc2)c1 | -9.1
57 | Cc1ccc(C(=O)Nc2cc(-c3nc4ncccc4o3)ccc2C)cc1 | 37.2
58 | Cc1ccc(C(=O)N(Cc2ccccc2)c2ccccc2)cc1 | -4
59 | CCOC(=O)C1CCN(S(=O)(=O)c2ccc(NC(C)=O)cc2)CC1 | 3.2
60 | O=C(O)CC(Cc1ccc(Br)cc1)C(=O)O (stereo not drawn) | -2.5
61 | COc1cccc(OCCNS(=O)(=O)c2ccc3ccccc3c2)c1 | 12.2
62 | CCOC(=O)c1cnn(-c2ccccc2)c1NC(=O)c1ccc([N+](=O)[O-])cc1 | 1.9
63 | C(=N\c1nc2ccccc2n1CCN1CCOCC1)/c1ccc2c(c1)OCO2 | 7.2
64 | COc1ccc(C2C3C(=O)N(c4ccccc4)C(=O)C3N3CCCN23)cc1 (stereo not drawn) | 0
65 | Cc1ccc(OCC(=O)N/N=C\c2ccncc2)cc1 | 1.2
66 | COC(=O)C1=C(C)NC(=O)/C1=C\c1ccccc1 | 11.9

Row | SMILES | displacement [%]
67 | CCOc1ccc(C(=O)/C=C/c2ccc(C(=O)OC)cc2)cc1 | 13.5
68 | Cc1ccccc1NC(=O)c1c(-c2c(F)cccc2Cl)noc1C | 14.2
69 | O=C(COc1ccccc1Cl)N1CCN(c2ccc([N+](=O)[O-])cc2)CC1 | -3.3
70 | O=C(Cc1ccccc1)Nc1nnc(CCc2ccccc2)s1 | 5.1
71 | Cc1ccc(CNC(=O)c2ccc([N+](=O)[O-])cc2)cc1 | 3.8
72 | CC1=C(C(=O)Nc2ccc(Br)cc2)C(c2ccc(F)cc2)NC(=O)N1 (stereo not drawn) | 3
73 | CCOC(=O)c1sc(NC(=O)c2ccc(S(=O)(=O)N3CCOCC3)cc2)c(C(=O)OCC)c1C | 8.8
74 | c1ccc2c(c1)OCC(c1csc(C3COc4ccccc4O3)n1)O2 (stereo not drawn) | -0.3
75 | O=C(O)COc1ccc(-c2nc3sc4c(c3c(=O)[nH]2)CCCC4)cc1 | -14.6
76 | CCOc1cc(/C=C2\SC(=S)N(c3ccccc3)C2=O)cc([N+](=O)[O-])c1O | -22.5
77 | Cc1ccc(S(=O)(=O)CCc2nc3ccccc3o2)cc1C | -2.3
78 | O=[N+]([O-])c1ccc(Sc2c(-c3ccccc3)nc3ccccn23)cc1 | 20
79 | COc1ccc(-c2nnc(NC(=O)c3ccc(Cl)cc3)s2)cc1OC | -4.3
80 | NC1=NC(=O)CC(C(=O)Nc2ccccc2)S1 (stereo not drawn) | 1.3
81 | COc1ccc(C2/C(=C(\O)c3ccc(F)cc3)C(=O)C(=O)N2CCCCCC(=O)O)c(OC)c1 (stereo not drawn) | -1.6
82 | O=c1oc2cc(OCc3ccccc3F)ccc2c2c1CCCC2 | -6.6
83 | C=CCN1C(=O)/C(=C\c2cc(C)n(-c3ccc([N+](=O)[O-])cc3)c2C)SC1=S | 14.9
84 | CCOC(=O)Cc1csc(NC(=O)COc2c(C)cccc2C)n1 | 3.5
85 | O=C1/C(=C\c2ccc([N+](=O)[O-])cc2)SC(=S)N1c1cccc(C(F)(F)F)c1 | 7.7
86 | COc1c(Cl)cc(C(=O)N2CCN(c3ccc(-n4c(C)ccc4C)cc3[N+](=O)[O-])CC2)cc1Cl | 11.4
87 | O=C(NC(c1ccccc1)c1ccccc1)c1ccc(Cl)c([N+](=O)[O-])c1 | 7.3
88 | COc1ccccc1C(=O)Oc1ccc2oc(=O)sc2c1 | 13.3

Row | SMILES | displacement [%]
89 | COC(=O)c1cccc(NC(=O)CCCOc2ccccc2)c1 | 0.6
90 | CSc1ccc(C2Nc3ccccc3NC3=C2C(=O)CC(c2ccccc2)C3)cc1 (stereo not drawn) | 1.2
91 | CCOc1cc(C(=O)Nc2ccc(Cl)cc2Cl)cc(OCC)c1OCC | 12.1
92 | COc1ccc(OCC(=O)NCCCN2CCOCC2)cc1 | -8.9
93 | C=CCn1c(SCC(=O)NCCCO)nc2sc3c(c2c1=O)CCC3 | -10.9
94 | C=C(C)c1cccc(C(C)(C)NC(=O)Nc2ccc(C(N)=O)cc2)c1 | 1
95 | COc1cccc(C(=O)N2c3ccccc3Sc3ccccc32)c1 | -6.7
96 | Cc1ccc(/C=N/NC(=O)c2cc(C3CC3)[nH]n2)cc1 | -12.2
97 | CC1=CC(C)(C)Nc2ccc(OC(=O)C(Cc3ccccc3)N3C(=O)c4ccccc4C3=O)cc21 (stereo not drawn) | -8.8
98 | COc1cccc(CN2CCN(Cc3c[nH]c4ccccc34)CC2)c1OC | -5.2
99 | Cc1ccc2ncnc(NCCCN3CCOCC3)c2c1 | 8.6
100 | O=C(Nc1cccnc1)c1ccccc1Br | -6.7
101 | O=C(Nc1cc(Cl)cc(Cl)c1)C(c1ccccc1)c1ccccc1 | -2.6
102 | O=[N+]([O-])c1ccc(-c2ccc(/C=N/n3cnnc3)o2)cc1 | 139
103 | O=C(COc1ccc2ccccc2c1)Nc1ccc(Cl)cc1Cl | -9.8
104 | Cc1cccc(OCC(=O)Nc2ccccc2C(C)C)c1C | 1.3
105 | CCOC(=O)C1=C(C)N=c2s/c(=C/c3ccc(Cl)cc3)c(=O)n2C1c1ccccc1 (stereo not drawn) | 90.8
106 | CC(C)(C)c1ccc(OCCOc2ccc(/C=N/n3cnnc3)cc2)cc1 | -3.3
107 | Cc1ccc(C(=O)Nn2c(O)c(C3=c4ccccc4=NC3=O)sc2=S)cc1 | -18.6
108 | CCCCC1(C2CCCCC2)Cc2ccccc2-c2nc(SCC(N)=O)[nH]c(=O)c21 (stereo not drawn) | -2.9
